# Test results taken from the RNAGym collection of RNA variant scans (doi:10.1101/gad.245936.114).
# Variants at the background level are over-represented here.
# B1: tRNA (parent)
# chain: CUCUCGGUAGCCAAGUUGGUUUAAGGCGCAAGACUUUAAUUUAUCACUACGAAAUCUUGAGAUCGGGCGUUCGACUCGCCCCCGGGAGAUUUUUUCCUCGAGCAA
# Variants of: B1
# Assay: nonsense suppression (GFP-seq) (ratio to wild type); higher = more function; SUP4oc tRNA, yeast GFP reporter sort-seq
# Summary of the method: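 Yeast carrying genome-integrated SUP4oc tRNA variants from a library with ~3% random mutations were grown in raffinose/galactose medium with 80 mg/L adenine. Each strain also carried a galactose-driven GFP ochre reporter and RFP. Cells were sorted into GFP/RFP bins, and each bin was Illumina-sequenced (phred ≥30). Nonsense suppression (GFPSEQ) is the bin median GFP/RFP, weighted by each variant's estimated cell share per bin, relative to wild-type SUP4oc; variants needed ≥100 reads and ≥30 cells.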
row,Variant,nonsense suppression
1,C12U G67A,≤ 0.026
2,C12U G67C U70A,≤ 0.026
3,C12U G67U,≤ 0.026
4,C12U G69C,≤ 0.026
5,C12U G73A A74G C81A,≤ 0.026
6,C12U G73C,≤ 0.026
7,C12U G78U G84C,≤ 0.026
8,C12U G84C,≤ 0.026
9,C12U G85C,0.111
10,C12U G85U,0.0919
11,C12U G86A,≤ 0.026
12,C12U U16A A33G G88A,≤ 0.026
13,C12U U16C G26U U63A A74C G88A,≤ 0.026
14,C12U U16C G28A,0.295
15,C12U U16G,0.785
16,C12U U16G A23C U76A,≤ 0.026
17,C12U U17A A62C G66C C80A,≤ 0.026
18,C12U U17A C64G,≤ 0.026
19,C12U U17C,0.212
20,C12U U20C,0.177
21,C12U U21A A31G,0.214
22,C12U U22C G67A,≤ 0.026
23,C12U U22G,0.745
24,C12U U35C G59A,≤ 0.026

row,Variant,nonsense suppression
1,C12U U35G,≤ 0.026
2,C12U U55C,0.0665
3,C12U U55C G67C C81A,≤ 0.026
4,C12U U55C U58G,≤ 0.026
5,C12U U63A,0.697
6,C12U U63A C81A,≤ 0.026
7,C12U U63C G66C,≤ 0.026
8,C12U U71C U76G G86U,≤ 0.026
9,C12U U76C,0.818
10,A13C A14C A24U G28C,≤ 0.026
11,A13C A14G A23G C68A,≤ 0.026
12,A13C A14G U17A C56U U58C U71G,≤ 0.026
13,A13C A23C A30U C34U G67C,≤ 0.026
14,A13C A23G A31U,≤ 0.026
15,A13C A23U C72G,≤ 0.026
16,A13C A23U G69A,≤ 0.026
17,A13C A24U G66U,≤ 0.026
18,A13C A24U U70C G86U,≤ 0.026
19,A13C A31C G85A,≤ 0.026
20,A13C A31G A60U C77A,≤ 0.026
21,A13C A60C,0.29
22,A13C A60G,0.392
23,A13C A62U G86A,≤ 0.026
24,A13C A89G,0.122

row,Variant,nonsense suppression
1,A13C A89U,≤ 0.026
2,A13C C27G C72A,≤ 0.026
3,A13C C27U,0.0494
4,A13C C34G G59U C77G,≤ 0.026
5,A13C C56A,≤ 0.026
6,A13C C64A,≤ 0.026
7,A13C C68U,0.836
8,A13C C75U,1.09
9,A13C C77U,0.0493
10,A13C C80U,0.179
11,A13C G15C,≤ 0.026
12,A13C G18A A30C C56A C72A G78A,≤ 0.026
13,A13C G18A A54C U63A A74C G88A,≤ 0.026
14,A13C G18U,≤ 0.026
15,A13C G18U G26A A31U,≤ 0.026
16,A13C G26C,≤ 0.026
17,A13C G26U U55A C79A A87C,≤ 0.026
18,A13C G28A,1.08
19,A13C G28U,0.0283
20,A13C G32C A33C G88C,≤ 0.026
21,A13C G32C U55G G85U,≤ 0.026
22,A13C G59A U76A,≤ 0.026
23,A13C G61A G84C,≤ 0.026
24,A13C G61A G85C,≤ 0.026

row,Variant,nonsense suppression
1,A13C G61U A87C,≤ 0.026
2,A13C G65C,≤ 0.026
3,A13C G66C,≤ 0.026
4,A13C G66C A74G C83U,≤ 0.026
5,A13C G69A,≤ 0.026
6,A13C G73U,0.0412
7,A13C G78U A89U,≤ 0.026
8,A13C U17A A31G,0.849
9,A13C U17A A62G C79G,≤ 0.026
10,A13C U17G,0.958
11,A13C U20G C80G,≤ 0.026
12,A13C U21A,1.19
13,A13C U21G A89U,≤ 0.026
14,A13C U22G A30G A33C G61U C77U,≤ 0.026
15,A13C U35G U57C G65C,≤ 0.026
16,A13C U55C,0.827
17,A13C U57C,0.0326
18,A13C U58A G61C,≤ 0.026
19,A13C U58A G67U G78A,≤ 0.026
20,A13C U58G A60U,≤ 0.026
21,A13C U70C,≤ 0.026
22,A13C U71A C72U U76C A89C,≤ 0.026
23,A13C U76C G78C,≤ 0.026
24,A13G A14C C27G A33G G73C,≤ 0.026

row,Variant,nonsense suppression
1,A13G A14G,≤ 0.026
2,A13G A23C U35G G85U,≤ 0.026
3,A13G A24C,≤ 0.026
4,A13G A24C C79G,≤ 0.026
5,A13G A24G A62C C77G,≤ 0.026
6,A13G A24U A74U,≤ 0.026
7,A13G A24U C56U A60U,≤ 0.026
8,A13G A30C G61A G69C C72G C82G,≤ 0.026
9,A13G A30C G61A G69C C72U C82G,≤ 0.026
10,A13G A30C G78U,≤ 0.026
11,A13G A31C C75U C81U,≤ 0.026
12,A13G A31G C81U,≤ 0.026
13,A13G A33G U57A A89G,≤ 0.026
14,A13G A54C G69U G86U,≤ 0.026
15,A13G A54U G61A G66C,≤ 0.026
16,A13G A74G,≤ 0.026
17,A13G A87G,0.14
18,A13G C27A A31U U55C C75U,≤ 0.026
19,A13G C29A,0.03
20,A13G C29G A62C U63A C80U G88A,≤ 0.026
21,A13G C29U A31U C56A U70G,≤ 0.026
22,A13G C29U G32A G66A C83U,≤ 0.026
23,A13G C34A,≤ 0.026
24,A13G C34G,≤ 0.026

row,Variant,nonsense suppression
1,A13G C34U G61U C80G,≤ 0.026
2,A13G C56G U71G,≤ 0.026
3,A13G C75A C81A,≤ 0.026
4,A13G C75U,0.305
5,A13G C77G,≤ 0.026
6,A13G C79G,≤ 0.026
7,A13G C81A,≤ 0.026
8,A13G C81A A87G,≤ 0.026
9,A13G C82A,≤ 0.026
10,A13G C82G,≤ 0.026
11,A13G C83A,≤ 0.026
12,A13G G15U U35G,≤ 0.026
13,A13G G18A,≤ 0.026
14,A13G G18U,≤ 0.026
15,A13G G18U A23C A54U A60U G66A,≤ 0.026
16,A13G G18U A23U A24G C27U A31G C83G,≤ 0.026
17,A13G G19A,≤ 0.026
18,A13G G19U G66C G73A A74C,≤ 0.026
19,A13G G25C A30C A87G,≤ 0.026
20,A13G G28A U63C,≤ 0.026
21,A13G G28U U35C,≤ 0.026
22,A13G G32C A33C G59A A62C U76A G84U,≤ 0.026
23,A13G G32U G59C A74G,≤ 0.026
24,A13G G59C,≤ 0.026

row,Variant,nonsense suppression
1,A13G G59C G86U,≤ 0.026
2,A13G G65U G67C C81U,≤ 0.026
3,A13G G67A G85U A87G,≤ 0.026
4,A13G G67C C83G,≤ 0.026
5,A13G G73U C79A,≤ 0.026
6,A13G G78C,≤ 0.026
7,A13G U16G C27A,≤ 0.026
8,A13G U17A G25U A87G,≤ 0.026
9,A13G U17C A33G G73U C81U,≤ 0.026
10,A13G U17C U70A C82A C83G,≤ 0.026
11,A13G U17G U76C,≤ 0.026
12,A13G U20G A62G C81U,≤ 0.026
13,A13G U21G C77U,≤ 0.026
14,A13G U22C U55C G85C,≤ 0.026
15,A13G U35A,≤ 0.026
16,A13G U35C A60C C81U,≤ 0.026
17,A13G U57A,≤ 0.026
18,A13G U58G G78C,≤ 0.026
19,A13U A14G,≤ 0.026
20,A13U A14U A23U U76G,≤ 0.026
21,A13U A14U G65C,≤ 0.026
22,A13U A14U U20A G28C C56A,≤ 0.026
23,A13U A23G G59C C77A,≤ 0.026
